# Experimental data as given in the supplement of paper PMC12889115.
# This is one part of the list. Repeats are few or missing, and single values can be far off.
# System: Salmonella enterica serovar Typhimurium SL1344
# Test: bacterial growth OD600 after 18 h in MHB with 0.5 µg/mL polymyxin B; higher = more bacterial growth (less inhibition)
# Details: 25 µM; polymyxin B 0.5 µg/mL; system: broth
# Procedure: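 Secondary screen of the 553 primary hits at 25 µM. (i) S. Typhimurium SL1344 grown in Mueller-Hinton broth with 0.5 µg/mL polymyxin B, OD600 read after 18 h. (ii) SAFIRE assay: RAW 264.7 macrophages infected with S. Typhimurium sifB::gfp (MOI 30); compound added 2 h post-infection; cells fixed at 18 h; GFP-positive pixel fraction per macrophage imaged by confocal microscopy and expressed as % of DMSO control.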
# 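Also: polymyxin B level opens the outer membrane while sparing the inner membrane, with novobiocin wells as reference growth inhibitor.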
row,Compound,bacterial growth OD600
1,CC(C)Oc1cccc(C(=O)C2CCCN(C(=O)/C=C/c3cccs3)C2)c1 (stereo not drawn),-0.01
2,COCCC(=O)Nc1ccc2c(c1)CN(C(=O)c1cc3c(s1)CCCCC3)CC2,0.002
3,COc1ccc(-c2noc(CN(C)Cc3cnn(-c4ccccc4C)c3)n2)cc1,0.008
4,Cc1ccc(CN(C)C(=O)CC2(c3ccccc3)CC(=O)N(CCCOc3cccnc3)C2=O)cc1 (stereo not drawn),-0.001
5,Cc1ccn(CCC(=O)N2CCC3(CC2)CC3C(=O)NCCC(c2ccccc2)c2ccccc2)n1 (stereo not drawn),0.362
6,CC(C)S(=O)(=O)c1ncc(CN(C)Cc2cccs2)n1CCc1ccccc1,-0.011
7,COc1ccc2c(c1)NC(=O)C2CC(=O)N(Cc1ccncc1)Cc1cccc(OCCc2ccc(F)cc2)c1 (stereo not drawn),-0.001
8,Cc1ccccc1CN1C[C@@H]2C[C@@H](c3cc(CC(C)C)[nH]n3)N3CCC[C@@]23C1=O,0.42
9,Cc1nc(N2CCC(C(=O)N(C)Cc3ccc(C(F)(F)F)cc3)CC2)nc2ccccc12,-0.008
10,CCOC(=O)C1(CCCc2ccccc2)CCN(C(=O)c2ccc(COC)o2)CC1,0.001
11,COCCCN1C(=O)CC(CC(=O)N2CCC(Cc3ccccc3)CC2)(c2ccccc2OC)C1=O (stereo not drawn),-0.012
12,O=C(c1cn(CC2COc3ccccc3O2)nn1)N1CCC2(C=Cc3ccccc32)CC1 (stereo not drawn),-0.003
13,Cc1ccc(CN2CCCC2C(=O)Nc2ccccc2Oc2cccnc2)cc1 (stereo not drawn),0.004
